Out of some 310,000 compounds screened, about 14,000 (4.5%) showed an effect of 50% or more. Effects have a minus sign here. Some of the results follow.
Each compound was assayed against human ether-à-go-go-related gene (hERG) potassium channel (human, UniProt Q12809) (assay: primary screen, population patch clamp on CHO cells stably expressing hERG).
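Note: peak tail current of the secondary pulse compared with the same well before compound.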

Chain of human ether-à-go-go-related gene (hERG) potassium channel (Q12809 whole entry, looked up): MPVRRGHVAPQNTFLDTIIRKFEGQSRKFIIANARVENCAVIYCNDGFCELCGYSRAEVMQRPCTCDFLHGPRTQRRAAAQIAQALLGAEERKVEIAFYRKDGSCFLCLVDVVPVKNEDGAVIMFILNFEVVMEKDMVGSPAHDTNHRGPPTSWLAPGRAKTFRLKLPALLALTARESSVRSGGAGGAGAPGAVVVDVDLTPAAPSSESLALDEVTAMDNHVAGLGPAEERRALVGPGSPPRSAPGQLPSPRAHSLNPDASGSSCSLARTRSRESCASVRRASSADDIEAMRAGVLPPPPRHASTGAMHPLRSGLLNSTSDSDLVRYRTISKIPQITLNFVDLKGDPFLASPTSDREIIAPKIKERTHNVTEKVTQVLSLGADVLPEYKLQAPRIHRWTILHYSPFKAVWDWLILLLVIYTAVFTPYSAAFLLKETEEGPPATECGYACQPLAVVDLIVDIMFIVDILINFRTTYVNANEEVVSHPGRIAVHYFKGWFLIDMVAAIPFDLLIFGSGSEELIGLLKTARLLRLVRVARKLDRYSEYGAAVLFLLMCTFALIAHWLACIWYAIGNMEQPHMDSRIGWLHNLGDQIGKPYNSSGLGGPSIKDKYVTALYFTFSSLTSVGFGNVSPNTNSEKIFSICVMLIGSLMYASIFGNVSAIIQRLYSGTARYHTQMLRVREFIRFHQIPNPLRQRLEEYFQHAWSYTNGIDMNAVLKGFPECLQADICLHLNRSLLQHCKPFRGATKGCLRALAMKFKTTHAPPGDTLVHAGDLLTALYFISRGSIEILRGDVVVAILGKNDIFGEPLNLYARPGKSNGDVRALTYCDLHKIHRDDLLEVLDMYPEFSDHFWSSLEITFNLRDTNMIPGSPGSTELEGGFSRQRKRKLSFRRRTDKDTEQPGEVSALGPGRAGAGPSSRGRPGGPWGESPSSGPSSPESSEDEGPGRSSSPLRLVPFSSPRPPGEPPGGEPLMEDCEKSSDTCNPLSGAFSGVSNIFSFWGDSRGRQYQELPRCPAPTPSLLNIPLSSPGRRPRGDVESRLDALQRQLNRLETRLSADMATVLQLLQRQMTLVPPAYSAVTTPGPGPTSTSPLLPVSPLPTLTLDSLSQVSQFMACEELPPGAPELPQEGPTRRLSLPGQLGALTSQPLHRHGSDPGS

In order of rising “hERG current change (%, negative = inhibition) at 10uM” value:
1. CCOc1ccccc1CN1CCN(Cc2cccc3nonc23)CC1CCO (centres unmarked)  -73.3%
2. CCOc1cc(N2CCOCC2)c(OCC)cc1NC(=O)CN1C(=O)NC(CC(C)C)C1=O (centres unmarked)  -70.4%
3. Cc1cc(-c2csc3ncnc(N4CCN(C)CC4)c23)cc(C)c1C  -65.2%
4. COCCNC(=O)COc1ccc(N(C)S(=O)(=O)c2ccc3ccccc3c2)cc1  -62%
5. COc1ccc(-n2c(SCC3CNC(=O)O3)nnc2-c2ccc(Cl)cc2)cc1 (centres unmarked)  -54.8%
6. COc1ccc(NC(=S)N(CCCN2CCN(C)CC2)Cc2cccs2)cc1  -53.4%
7. COc1ccc(-c2nc(Cn3c(SCc4ccc(C)cc4)nc4ccncc43)c(C)o2)cc1OC  -52%
8. Cn1c(CNC(=O)c2ccco2)nnc1SCC(=O)Nc1ccc(Br)cc1F  -43.4%
9. COc1ccc(S(=O)(=O)N(CCc2ccccc2)CC(=O)N2CCOCC2)cc1  -32.6%
10. CS(=O)(=O)N(Cc1ccccc1)c1ccc(C(=O)N2CCc3ccccc3C2)cc1  -30%
11. COCCn1c(SC(C)C(=O)Nc2ncc(Cl)cc2Cl)nc2ccccc21 (centres unmarked)  -29.8%
12. COc1cccc(C(C(=O)NC2CCCC2)N(CCC(C)C)C(=O)CCC(=O)Nc2cc(C)on2)c1 (centres unmarked)  -23.3%
13. Cc1oc(-c2cccs2)nc1CS(=O)CC(=O)NCCc1ccccc1 (centres unmarked)  -22.7%
14. COC(=O)c1nc(NC(=O)C(C)C)n[nH]1  -19.1%
15. CCOc1ccc(C(C(=O)NC2CCCC2)N(CCOC)C(=O)CNC(=O)c2ccco2)cc1 (centres unmarked)  -18.9%
16. COc1cc(C(=O)N2CCCC(c3nc(-c4cccs4)no3)C2)cc(OC)c1OC (centres unmarked)  -18.8%
17. N#CC1=C(N)Oc2c(c(=O)oc3ccccc23)C1c1ccc(OC(=O)N2CCOCC2)cc1 (centres unmarked)  -17.2%
18. COc1ccc(NC(=O)CSc2nnc(C)n2C2CCCCC2)cc1  -16.6%
19. Cn1c(CCCOc2ccc(Cl)cc2Cl)nnc1SCC(=O)Nc1ccc(F)c(Cl)c1  -15.5%
20. CCN(c1cccc(C)c1)S(=O)(=O)c1ccc2[nH]c(=O)c(=O)[nH]c2c1  -9.87%
21. Cc1nc2sc(C(c3cccs3)N3CCN(c4ccccc4)CC3)c(O)n2n1 (centres unmarked)  -9.85%
22. CCOc1cc2c(cc1OCC)-n1cccc1C(c1ccc(F)c(OC)c1)NC2.Cl (centres unmarked)  -9.53%
23. CC(=O)Nc1ccc(S(=O)(=O)NC(CC(=O)O)c2ccc(C)cc2)cc1 (centres unmarked)  -7.31%
24. CC(=O)CCc1c(C)c2cc(C)ccc2[nH]c1=O  -6.99%
25. Cc1cc(C)n2ncc(C(=O)NCc3ccccc3)c2n1  -6.85%
26. O=C(NC(c1ccccc1)c1ccccc1)N1CCN(CCO)CC1  -5.23%
27. COc1ccc(C(=O)Nc2ccccc2C(=O)NCc2cccnc2)cc1OC  -4.86%
28. O=C(CCc1nc2ccccc2[nH]1)Nc1ccccc1  -4.56%
29. O=C(NCc1ccc(F)cc1)C1CCCN1S(=O)(=O)c1cccc2nsnc12 (centres unmarked)  -4.49%
30. N/C(Cc1ccc([N+](=O)[O-])cc1)=N\OC(=O)Cc1ccc(Cl)cc1  -4.39%
31. COc1ccc(C(=O)C2CCN(C(=S)NCCc3ccccc3)CC2)cc1  -3.53%
32. Cc1cc(C)c(S(=O)(=O)c2ccccc2C)c(OCCO)n1  -3.41%
33. CCOc1ccc(NC(=O)c2cccc(OC(=S)N3CCC(C)CC3)c2)cc1  -2.73%
34. COc1ccc(-c2nnc(CSc3nc4ccccc4c(=O)n3CC(C)C)o2)cc1OC  -1.97%
35. CC1SC(c2ccc(F)cc2)N(CCc2ccccc2)C1=O (centres unmarked)  -1.76%
36. CCOC(=O)c1c(C)[nH]c(C)c1C(=O)COC(=O)c1sccc1C  -1.13%
37. COc1cccc(CN(C)C(=O)c2ccc(Oc3ccccc3)cc2)c1OC  -1.11%
38. Cc1[nH]nc(Sc2ccccn2)c1[N+](=O)[O-]  -0.138%
39. CCC(NC(=O)Cc1c(C)c2c(cc(C)c3c(C)c(C)oc32)oc1=O)C(=O)O (centres unmarked)  0.0315%
40. Cc1ccc(-n2c(C)nc3ncnc(-c4ccccc4)c32)cc1  0.191%
41. Nc1ccc(SC(F)(F)F)cc1C(=O)c1ccccc1  0.508%
42. O=C(CCc1nc2ccccc2s1)Nc1cccnc1  1.38%
43. O=C(CSc1nnc(-c2cccc(S(=O)(=O)N3CCCCC3)c2)o1)c1ccc[nH]1  1.41%
44. CC(OC(=O)C(C)N1C(=O)C2C3C=CC(C4CC34)C2C1=O)C(=O)c1ccccc1 (centres unmarked)  1.51%
45. Cc1ccc(S(=O)(=O)n2cc(-c3ccccc3)c(N)n2)cc1  1.65%
46. Cc1cc(NC(=O)COC(=O)CCS(=O)(=O)c2cc(Cl)ccc2Cl)no1  2.03%
47. CCC(=O)Nc1cccc2c1C(=O)N(C)C2=O  2.13%
48. COc1ccc(C(=O)/C=C/c2ccc(N3CCCCC3)c([N+](=O)[O-])c2)c(OC)c1  2.73%
49. Fc1ccccc1CSc1ncnc2sc3c(c12)CCCC3  2.75%
50. COc1cc(C)ccc1OCCCCOc1ccccc1C(C)=O  3.3%
51. C#CCOCCOCCOCCNc1nc(N2CCN(C(=O)Cn3cc(CCCC[NH3+])nn3)CC2)nc(N2CCN(C(=O)[C@H](CCCC[NH3+])n3cc(CCCC)nn3)CC2)n1.[Cl-]  3.72%
52. O=C(CSc1ncnc2scc(-c3ccc(F)cc3)c12)c1ccc2c(c1)OCCO2  4.02%
53. CCOC(=O)N1CCC(NC(=O)c2ccc3c(c2)N=C(CC)c2cc(C)ccc2S3)CC1  4.25%
54. CCOC(=O)NC(=O)/C(C#N)=N/Nc1c(F)cccc1F  4.72%
55. Nc1nc(Nc2ccccc2Cl)cc(=O)[nH]1  4.95%
56. CC(=O)c1c(O)cc(O)c(C(C)=O)c1O  5.57%
57. Cl.NNCc1cccc(O)c1  5.61%
58. CC(=O)Nc1ccc(S(=O)(=O)N2CCC(C(=O)NCCc3ccc(Cl)cc3)CC2)cc1  5.7%
59. Cc1cc(C)c2nc(C(F)(F)F)nc(N3CCN(C(=O)c4ccco4)CC3)c2c1  6.1%
60. O=C(Nc1ccccc1N1CCOCC1)c1cc2c(s1)CCCCC2  6.4%
61. Cc1ccc(F)c([C@H]2C3C=CCC(c4ccccc4)C3C(=O)N2Cc2ccccc2)c1 (some centres unmarked)  6.8%
62. COC(=O)C(Cc1ccccc1)NC(=O)CSc1nc(C)cc(=O)[nH]1 (centres unmarked)  6.85%
63. Cc1c(Cl)cccc1NC(=O)CCC(=O)NNC(=O)c1ccccc1  7.19%
64. CCN1CCC(NC(=O)Nc2ccc(F)cc2)CC1  7.3%
65. Cc1cc(C)n(C(=O)c2cc([N+](=O)[O-])cc([N+](=O)[O-])c2)n1  7.8%
66. O=C(NC1CCCC1)c1ccc([N+](=O)[O-])s1  8.21%
67. CCOc1ccc2nc(SC3CC(=O)N(c4ccc(OC)cc4)C3=O)sc2c1 (centres unmarked)  9.11%
68. CCCCN=c1scc(-c2ccc3c(c2)NC(=O)CO3)n1N=C1CCCC1  9.95%
69. O=C(CN(C(=O)CNC(=O)c1cccs1)c1ccccc1F)NC1CCCCC1  9.96%
70. COCCNC(=O)C(OC(=O)C1=Cc2ccccc2OC1)C(C)C (centres unmarked)  10.3%
71. CCN1C(=O)[C@H]2[C@@H](c3ccc(-c4ccc(Cl)c(Cl)c4)cc3)N[C@@](CC(C)C)(C(=O)OC)[C@H]2C1=O.O=C(O)C(F)(F)F  11.9%
72. CCOC(=O)c1ccc(CNC(=O)c2n[nH]c(=O)c3ccccc23)o1  12.5%
73. O=C(CNC(=O)C1CCCCC1)NCCCO  12.7%
74. CCOC(=O)[C@H]1[C@H]2COc3ccc(Cl)cc3[C@@H]2N2C(=O)CN(CC3CCCO3)C(=O)[C@@]12C (some centres unmarked)  13.5%
75. COc1ccc(-c2noc(-c3ccccc3Cl)n2)cc1OC  13.8%
76. COc1ccc(OC)c(S(=O)(=O)NC2CCCCNC2=O)c1 (centres unmarked)  15.2%
77. CCCCNC(=O)C1(NC(=O)Nc2ccc(C)cc2)CCCCC1  15.5%
78. Cn1ncc(Cl)c1C(=O)N1CCN(c2ccccc2)CC1  15.7%
79. CN(CC(=O)Nc1ccccc1Br)C(=O)c1cccn1C  16.2%
80. CC(C)n1c(C(F)(F)F)nc2cc(C(=O)N3CCOCC3)ccc21  16.3%
81. O=C(CCc1ccccc1)NN1C(=O)C2C3C=CC(C3)C2C1=O (centres unmarked)  16.4%
82. COC(=O)N/N=C/c1ccc(OC(=O)c2ccco2)c(OC)c1  17.8%
83. CC1CCc2c(sc(NC(=O)CSc3ncn[nH]3)c2C#N)C1 (centres unmarked)  18.4%
84. O=C(NC(O)C(=O)c1ccccc1)c1ccccn1 (centres unmarked)  24.2%
85. Cc1ccc(CNC(=O)c2ccc(N3CCC4(CC3)CC(c3ccccc3)=NO4)c(NC(=O)c3ccc(Br)cc3)c2)cc1  31.6%
86. NNC(=O)COc1ccccc1[N+](=O)[O-]  65.3%
